The text below walks through data of article PMC4081100.

This is a selection; strong and weak results do not stand in their true shares. For some of these results: At the low end of the ranking the order means little. The list shows a part of the results. For some of these results: The exact form of the protein is not confirmed.

Holding throughout (assay): universal protein binding microarray (PBM)
What all share (conditions): transcription factors of Arabidopsis thaliana; high values mean tight binding; most listed sequences are background and not binding sites; double strand, one strand shown

For one test, the target named is T1, GST-ANAC092(1-176) (UniProt Q9FKA0).
T1 sequence: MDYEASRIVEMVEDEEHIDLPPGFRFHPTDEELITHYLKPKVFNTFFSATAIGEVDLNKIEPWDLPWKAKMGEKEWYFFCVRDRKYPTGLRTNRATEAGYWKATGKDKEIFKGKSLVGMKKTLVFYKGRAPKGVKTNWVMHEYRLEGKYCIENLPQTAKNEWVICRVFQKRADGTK

The target of another test is T2, GST-ANAC019 NAC domain (UniProt Q9C932).
T2 sequence: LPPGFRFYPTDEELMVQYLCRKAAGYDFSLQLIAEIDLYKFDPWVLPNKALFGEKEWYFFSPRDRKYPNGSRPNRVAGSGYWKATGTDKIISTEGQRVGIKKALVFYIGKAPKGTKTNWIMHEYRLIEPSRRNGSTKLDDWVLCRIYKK

In the next test the target is T3, GST-ATAF1 NAC domain (UniProt Q39013).
T3 sequence: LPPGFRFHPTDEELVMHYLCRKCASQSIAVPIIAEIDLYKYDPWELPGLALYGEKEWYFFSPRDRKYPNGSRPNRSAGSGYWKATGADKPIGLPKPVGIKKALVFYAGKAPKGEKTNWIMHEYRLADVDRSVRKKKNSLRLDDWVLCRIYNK

Another test deals with T4, GST-NTL8 NAC domain (UniProt Q9XIN7).
T4 sequence: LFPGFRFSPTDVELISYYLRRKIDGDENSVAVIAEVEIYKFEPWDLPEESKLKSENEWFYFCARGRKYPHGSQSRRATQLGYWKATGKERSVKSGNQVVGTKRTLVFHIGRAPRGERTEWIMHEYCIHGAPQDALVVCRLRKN

In a further test the target is T5, GST-VND3 NAC domain (UniProt Q9FH59).
T5 sequence: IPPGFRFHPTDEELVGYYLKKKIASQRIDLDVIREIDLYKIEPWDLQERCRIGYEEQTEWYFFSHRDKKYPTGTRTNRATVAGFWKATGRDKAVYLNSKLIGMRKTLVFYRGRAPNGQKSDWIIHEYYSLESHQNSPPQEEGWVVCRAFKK

The target of a further test is T6, GST-VND7 NAC domain (UniProt Q9C8W9).
T6 sequence: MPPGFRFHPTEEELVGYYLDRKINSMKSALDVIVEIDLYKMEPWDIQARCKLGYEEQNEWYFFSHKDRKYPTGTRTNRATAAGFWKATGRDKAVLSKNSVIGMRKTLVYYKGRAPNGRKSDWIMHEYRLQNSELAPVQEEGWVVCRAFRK

The target in test [1] is T7, GST-VOZ2 (Arabidopsis thaliana) (UniProt Q9SLB9).
T7 sequence: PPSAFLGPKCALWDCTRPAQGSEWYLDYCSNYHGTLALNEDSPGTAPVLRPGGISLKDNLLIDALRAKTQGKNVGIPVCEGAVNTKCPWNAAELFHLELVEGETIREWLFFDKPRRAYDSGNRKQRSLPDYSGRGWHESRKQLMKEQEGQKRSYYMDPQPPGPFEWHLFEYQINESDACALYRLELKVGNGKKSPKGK

The next test has as its target GST-NTL6(1-168) (UniProt Q9SCK6).
Another test addresses T8, GST-ANAC055(1-171) (UniProt Q9LDY8).
T8 sequence: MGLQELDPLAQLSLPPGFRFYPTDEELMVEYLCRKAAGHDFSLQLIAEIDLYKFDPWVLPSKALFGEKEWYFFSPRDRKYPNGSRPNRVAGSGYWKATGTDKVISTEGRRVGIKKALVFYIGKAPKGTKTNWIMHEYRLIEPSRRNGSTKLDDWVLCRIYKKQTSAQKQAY

The target in test [2] is T9, GST-ANAC092(1-285) full length (UniProt Q9FKA0).
T9 sequence: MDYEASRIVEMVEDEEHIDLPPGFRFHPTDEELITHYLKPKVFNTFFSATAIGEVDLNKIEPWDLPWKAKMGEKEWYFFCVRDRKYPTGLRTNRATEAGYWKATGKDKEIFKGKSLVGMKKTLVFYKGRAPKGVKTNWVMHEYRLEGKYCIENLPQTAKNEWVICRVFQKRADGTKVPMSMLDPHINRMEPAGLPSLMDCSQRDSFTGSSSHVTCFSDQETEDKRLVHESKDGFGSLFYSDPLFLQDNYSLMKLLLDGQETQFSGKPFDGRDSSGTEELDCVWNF

The target of a further test is T10, GST-NAP(1-166) (UniProt O49255).
T10 sequence: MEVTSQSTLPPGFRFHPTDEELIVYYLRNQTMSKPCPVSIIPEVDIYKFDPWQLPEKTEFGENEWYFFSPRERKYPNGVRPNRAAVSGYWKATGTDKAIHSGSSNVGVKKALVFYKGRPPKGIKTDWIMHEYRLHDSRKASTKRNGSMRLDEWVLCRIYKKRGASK

The target of a further test is T11, GST-NST2(1-184) (UniProt Q9M274).
T11 sequence: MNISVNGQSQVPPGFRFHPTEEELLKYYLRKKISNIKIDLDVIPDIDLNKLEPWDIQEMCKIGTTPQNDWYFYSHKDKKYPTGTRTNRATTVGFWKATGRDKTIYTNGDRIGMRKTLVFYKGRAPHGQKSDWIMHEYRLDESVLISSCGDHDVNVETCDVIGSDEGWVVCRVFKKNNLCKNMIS

For the next test, the target named is GST-WRKY1(266-371) (UniProt Q9SI37).

With AAGTCATC, the binding signal is 0.00323 E-score with GST-ANAC092(1-176); -0.0606 E-score with GST-ANAC019 NAC domain; 0.0124 E-score with GST-ATAF1 NAC domain; 0.0978 E-score with GST-NTL8 NAC domain; 0.0031 E-score with GST-VND3 NAC domain; 0.11 E-score with GST-VND7 NAC domain. In test [1], the binding signal was -0.0147 E-score.
For the sequence GGCGTCAA, the binding signal with GST-ANAC092(1-176) was 0.0474 E-score; with GST-NTL6(1-168), -0.0136 E-score; in the test with GST-ANAC019 NAC domain it was -0.113 E-score; with GST-ANAC055(1-171), -0.144 E-score; in the test with GST-ATAF1 NAC domain, -0.083 E-score; in test [2], -0.00502 E-score. For the same sequence, the binding signal was -0.178 E-score in the test with GST-NAP(1-166); -0.0763 E-score with GST-NST2(1-184); -0.0481 E-score with GST-NTL8 NAC domain; -0.0887 E-score with GST-VND3 NAC domain; -0.068 E-score in the test with GST-VND7 NAC domain; -0.00275 E-score in test [1].
As for AAGGAATG, the binding signal in test [2] worked out at 0.115 E-score; with GST-NAP(1-166) it was 0.0456 E-score; with GST-NST2(1-184), 0.196 E-score; with GST-NTL8 NAC domain it was 0.293 E-score; with GST-VND3 NAC domain, 0.0415 E-score; with GST-VND7 NAC domain, 0.0905 E-score. Besides, the binding signal in test [1] came to 0.0383 E-score; with GST-WRKY1(266-371), 0.0844 E-score.
For ACGCCACG, the binding signal with GST-NTL6(1-168) is -0.066 E-score; with GST-ANAC055(1-171) it was 0.14 E-score; with GST-NAP(1-166), 0.0244 E-score; with GST-NTL8 NAC domain it was -0.0579 E-score; in the test with GST-VND3 NAC domain, -0.0471 E-score; in the test with GST-VND7 NAC domain, 0.038 E-score. Also, the values for the binding signal (in [1]; with GST-WRKY1(266-371)) were 0.035 E-score and -0.103 E-score, respectively.
With GTCAATTA, the binding signal with GST-ANAC092(1-176) is 0.00685 E-score; with GST-NTL6(1-168) it was 0.0219 E-score; in the test with GST-ANAC019 NAC domain it was 0.0034 E-score; with GST-ANAC055(1-171) it was 0.0852 E-score; with GST-NAP(1-166) it was -0.0195 E-score; in the test with GST-NTL8 NAC domain, 0.0378 E-score. Moreover, the binding signal stood at 0.104 E-score with GST-VND3 NAC domain, 0.0371 E-score with GST-VND7 NAC domain and 0.2 E-score in test [1].
CTTAGTCA: the binding signal with GST-ANAC092(1-176) was 0.0279 E-score; with GST-NTL6(1-168) it was 0.243 E-score; in the test with GST-ANAC019 NAC domain, 0.0435 E-score; in the test with GST-ANAC055(1-171) it was -0.0331 E-score; in test [2], -0.0175 E-score; with GST-NAP(1-166), 0.036 E-score. Moreover, the binding signal with GST-NST2(1-184) is -0.0349 E-score; with GST-VND3 NAC domain, -0.0106 E-score; with GST-VND7 NAC domain, 0.0448 E-score; in test [1] it was 0.0254 E-score.
Regarding GTCAAGTA, the binding signal came out at 0.0311 E-score with GST-ANAC092(1-176); 0.0257 E-score with GST-NTL6(1-168); 0.0392 E-score with GST-ANAC019 NAC domain; 0.186 E-score in test [2]; 0.0229 E-score with GST-NAP(1-166); 0.00519 E-score with GST-NST2(1-184). In addition, the binding signal is -0.0531 E-score with GST-NTL8 NAC domain, 0.137 E-score in the test with GST-VND3 NAC domain, 0.0236 E-score with GST-VND7 NAC domain and 0.0293 E-score in test [1].
GAAGAAAC: the binding signal in the test with GST-NTL6(1-168) was determined as 0.295 E-score; with GST-NAP(1-166), 0.00068 E-score; with GST-NTL8 NAC domain, 0.423 E-score; with GST-VND3 NAC domain it was 0.00159 E-score; with GST-VND7 NAC domain it was 0.0868 E-score; in [1], 0.0945 E-score. Moreover, the binding signal with GST-WRKY1(266-371) is -0.0533 E-score.
Turning to CACGCTAG, the binding signal is -0.0434 E-score with GST-NTL6(1-168); 0.0278 E-score in the test with GST-ATAF1 NAC domain; -0.0495 E-score with GST-NTL8 NAC domain; 0.0403 E-score with GST-VND3 NAC domain; -0.0264 E-score with GST-VND7 NAC domain; -0.0284 E-score in [1]. The same sequence gave a binding signal in the test with GST-WRKY1(266-371) of -0.00864 E-score.
Consider ACGCCACC, for which the binding signal with GST-NTL6(1-168) is -0.0332 E-score; in the test with GST-ANAC055(1-171), 0.0815 E-score; with GST-NTL8 NAC domain, -0.179 E-score; with GST-VND3 NAC domain, -0.0279 E-score; with GST-VND7 NAC domain, -0.0263 E-score; in test [1], 0.244 E-score. The sequence further yielded a binding signal with GST-WRKY1(266-371) of -0.128 E-score.
For GCGTCAAC, the binding signal in the test with GST-NTL6(1-168) amounted to 0.00591 E-score; with GST-ANAC019 NAC domain it was 0.0778 E-score; with GST-ANAC055(1-171), 0.0308 E-score; with GST-ATAF1 NAC domain it was 0.00133 E-score; in [2], 0.109 E-score; in the test with GST-NAP(1-166), 0.028 E-score. In addition, the binding signal with GST-NTL8 NAC domain was -0.0485 E-score; with GST-VND3 NAC domain, -0.0407 E-score; in the test with GST-VND7 NAC domain it was 0.0159 E-score; in test [1], 0.0826 E-score.
For the sequence GTCAAGCA, the binding signal is 0.0227 E-score with GST-ANAC092(1-176); -0.107 E-score in the test with GST-NTL6(1-168); 0.0105 E-score with GST-ANAC019 NAC domain; -0.0826 E-score with GST-ANAC055(1-171); -0.0328 E-score in the test with GST-ATAF1 NAC domain; 0.106 E-score in test [2]. The binding signal with GST-NAP(1-166) was -0.187 E-score; with GST-NST2(1-184), 0.0342 E-score; in the test with GST-NTL8 NAC domain it was 0.0377 E-score; with GST-VND3 NAC domain, -0.0137 E-score; with GST-VND7 NAC domain, -0.042 E-score; in test [1] it was -0.0563 E-score.
Regarding TGACTCAA, the binding signal was -0.0286 E-score in the test with GST-ANAC092(1-176); -0.0708 E-score with GST-ANAC019 NAC domain; 0.0297 E-score in the test with GST-ANAC055(1-171); 0.131 E-score in test [2]; -0.104 E-score with GST-NAP(1-166); 0.05 E-score with GST-NST2(1-184). Also, the binding signal was 0.0257 E-score in the test with GST-NTL8 NAC domain, 0.113 E-score with GST-VND3 NAC domain, 0.0043 E-score in the test with GST-VND7 NAC domain and 0.148 E-score in test [1].
As for AGGGAAAG, the binding signal was -0.0598 E-score with GST-ANAC055(1-171); -0.0871 E-score with GST-ATAF1 NAC domain; -0.0199 E-score in test [2]; -0.084 E-score with GST-NAP(1-166); -0.169 E-score in the test with GST-NST2(1-184); 0.473 E-score in the test with GST-NTL8 NAC domain. Also, the binding signal with GST-VND3 NAC domain is -0.0401 E-score; with GST-VND7 NAC domain, -0.0742 E-score; in [1], 0.00386 E-score; with GST-WRKY1(266-371), -0.0405 E-score.
